# Source: PubChem BioAssay AID1768 (National Center for Advancing Translational Sciences (NCATS), 2009)
# About 620 (0.23%) of roughly 270,000 compounds were called active. This list was built around the results that the source calls inconclusive (neither active nor inactive); the mix of calls is not that of the screen. The call rests on the fitted dose curve; in most records, active means well fitted inhibition curve with a large enough effect in the polarisation, with a control signal flat (not every such curve was filed as active); inconclusive means small, poorly fitted or top-dose-only effect, or effect the other way, or a change in a side signal; inactive means no such curve, though single readings can be large or run the other way; the % refers to the polarisation. Where the call is inconclusive, the potency comes from a doubtful curve fit. A note “side channel” means that the fit belongs to a control or component signal, not to the main read-out.
# Molecular target: Menin (Homo sapiens) (UniProt O00255)
# Sequence of UniProt O00255 (O00255 whole entry, looked up): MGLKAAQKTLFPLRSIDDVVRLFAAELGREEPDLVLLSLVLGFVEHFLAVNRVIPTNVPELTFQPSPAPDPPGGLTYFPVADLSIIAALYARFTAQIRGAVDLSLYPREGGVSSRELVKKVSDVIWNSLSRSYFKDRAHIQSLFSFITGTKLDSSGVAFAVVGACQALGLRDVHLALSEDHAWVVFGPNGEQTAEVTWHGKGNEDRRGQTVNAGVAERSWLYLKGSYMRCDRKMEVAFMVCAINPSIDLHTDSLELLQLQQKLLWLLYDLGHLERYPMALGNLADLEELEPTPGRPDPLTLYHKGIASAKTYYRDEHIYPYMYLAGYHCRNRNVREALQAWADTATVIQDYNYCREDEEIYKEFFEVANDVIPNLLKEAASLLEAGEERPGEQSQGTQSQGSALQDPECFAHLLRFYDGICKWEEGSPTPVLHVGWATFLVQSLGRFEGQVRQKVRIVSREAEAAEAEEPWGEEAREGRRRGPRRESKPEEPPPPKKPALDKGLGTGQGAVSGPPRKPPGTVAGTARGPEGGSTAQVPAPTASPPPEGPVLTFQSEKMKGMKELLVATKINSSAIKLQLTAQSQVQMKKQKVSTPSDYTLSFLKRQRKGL
# Assay: qHTS Assay for Inhibitors Targeting the Menin-MLL Interaction in MLL Related Leukemias: Competition With Texas Red Labeled MLL-derived Mutant Peptide
# Conditions: fluorescence polarization; series mostly up to 61.6 µM
# Potency means the concentration at half of the fitted maximal effect; tags describe the fitted curve by direction and shape or compound fluorescence and quenching.
row,SMILES,Potency
1,Cc1cc(Cl)c2oc(C(=O)NCC(C)(C)N3CCOCC3)c(C)c2c1,"inconclusive: 25.1 µM [quencher, side channel, single point]"
2,CN(C)CCCN(C(=O)c1ccc(S(=O)(=O)N2CCc3ccccc3C2)cc1)c1nc2c(F)cccc2s1,"inconclusive: 12.6 µM [fluorescent, side channel, partial curve]"
3,c1cnc(SCCOc2cccc3ccccc23)nc1,"inconclusive: 17.8 µM [quencher, side channel, partial curve]"
4,O=S(=O)(NCCc1ccccc1)c1ccccc1Br,inactive
5,O=C(CSc1nc2cc(Cl)ccc2s1)c1ccco1,"inconclusive: 39.8 µM [quencher, side channel, single point]"
6,COc1cccc(NC(=O)CC2S/C(=N\S(=O)(=O)c3ccccc3)N(c3ccccc3)C2=O)c1 (stereo not given),"inconclusive: 25.1 µM [quencher, side channel, partial curve]"
7,CC(=O)c1sc(NC(=O)c2ccc(COc3ccccc3Cl)o2)nc1C,"inconclusive: 39.8 µM [inhibitor, single point]"
8,COC(=O)c1cccc(NC(=S)Nc2cc(Cl)ccc2OC)c1,"inconclusive: 22.4 µM [quencher, side channel, single point]"
9,CCCc1[nH]n(-c2ccc([N+](=O)[O-])cc2)c(=O)c1C=NCCCn1ccnc1,"inconclusive: 14.1 µM [quencher, side channel, partial curve]"
10,COc1ccc(CN2CCC(C(=O)c3cccc(Cl)c3)CC2)cc1,"inconclusive: 14.1 µM [inhibitor, partial curve]"
11,CC(C)Oc1cccc(C(=O)Nc2ccc(NC(=O)c3ccco3)cc2)c1,"inconclusive: 39.8 µM [fluorescent, side channel, single point]"
12,O=C(N/N=C/c1cccc(Oc2ccc([N+](=O)[O-])cc2[N+](=O)[O-])c1)c1cncc(Br)c1,"inconclusive: 4.47 µM [quencher, side channel, full curve]"
13,O=C(Nc1ccc(S(=O)(=O)Nc2ccccc2)cc1)c1ccc(CN2CCOCC2)cc1,"inconclusive: 8.91 µM [quencher, side channel, partial curve]"
14,O=C(OCCNc1nc(-c2ccccc2)nc2ccccc12)c1ccncc1,"inconclusive: 31.6 µM [quencher, side channel, partial curve]"
15,CCOP(=O)(OCC)C(NC(=O)Nc1c(C)cc(C)cc1C)c1ccccc1 (stereo not given),"inconclusive: 3.16 µM [fluorescent, side channel, full curve, poor fit]"
